Experimental findings from paper PMC4336329 (PLoS ONE, 2015) are described below.

Molecules are shown by their SMILES. Among all 310,000 compounds or so, about 2,200 (0.71%) showed an effect of 50% or more. The effect is printed as a negative number. This is one part of the list.

The target of this assay is human ether-à-go-go-related gene (hERG) potassium channel (human, UniProt Q12809). In words: primary screen, population patch clamp on CHO cells stably expressing hERG.
Sequence of human ether-à-go-go-related gene (hERG) potassium channel (Q12809 whole entry, looked up): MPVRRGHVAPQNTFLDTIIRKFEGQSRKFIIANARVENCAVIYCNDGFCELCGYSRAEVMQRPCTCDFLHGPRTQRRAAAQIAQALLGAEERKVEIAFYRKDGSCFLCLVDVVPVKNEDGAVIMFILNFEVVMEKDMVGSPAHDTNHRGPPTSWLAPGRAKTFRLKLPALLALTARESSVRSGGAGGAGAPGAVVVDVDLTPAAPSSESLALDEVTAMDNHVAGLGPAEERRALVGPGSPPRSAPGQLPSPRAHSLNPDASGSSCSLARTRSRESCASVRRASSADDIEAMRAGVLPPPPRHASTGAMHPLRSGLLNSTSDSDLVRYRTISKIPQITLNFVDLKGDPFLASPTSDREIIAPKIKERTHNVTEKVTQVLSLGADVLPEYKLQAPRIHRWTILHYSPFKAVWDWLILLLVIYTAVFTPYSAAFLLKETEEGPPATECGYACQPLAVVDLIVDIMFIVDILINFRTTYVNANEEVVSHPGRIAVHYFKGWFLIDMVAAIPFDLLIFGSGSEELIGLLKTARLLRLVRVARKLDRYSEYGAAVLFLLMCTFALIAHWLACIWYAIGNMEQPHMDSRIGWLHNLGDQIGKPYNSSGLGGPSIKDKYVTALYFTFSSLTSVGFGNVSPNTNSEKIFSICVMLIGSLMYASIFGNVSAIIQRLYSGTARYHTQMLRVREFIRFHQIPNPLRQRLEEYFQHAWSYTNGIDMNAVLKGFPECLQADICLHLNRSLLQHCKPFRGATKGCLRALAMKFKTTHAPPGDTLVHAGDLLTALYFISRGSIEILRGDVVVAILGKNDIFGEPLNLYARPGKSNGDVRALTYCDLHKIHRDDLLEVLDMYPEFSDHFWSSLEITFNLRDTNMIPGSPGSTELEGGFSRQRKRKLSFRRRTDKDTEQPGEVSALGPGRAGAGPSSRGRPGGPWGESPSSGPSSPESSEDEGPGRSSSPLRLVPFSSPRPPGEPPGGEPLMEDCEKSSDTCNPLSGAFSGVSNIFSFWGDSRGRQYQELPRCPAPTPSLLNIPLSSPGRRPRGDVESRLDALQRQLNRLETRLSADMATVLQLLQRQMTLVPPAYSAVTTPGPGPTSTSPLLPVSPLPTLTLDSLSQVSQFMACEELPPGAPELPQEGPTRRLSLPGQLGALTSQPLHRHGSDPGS
Regarding `Cc1noc2ncnc(Oc3ccc(F)cc3)c12`, the “hERG current change (%, negative = inhibition) at 1uM” value is reported as 1.07%.

As for `CCOC(=O)C1=C(N)N(c2ccccc2)C(=O)C1`, the “hERG current change (%, negative = inhibition) at 1uM” value was 14.4%.

On to `CC(OC(=O)CCC(=O)c1cccs1)C(=O)Nc1ccc(Cl)cn1` (stereo not drawn), for which the “hERG current change (%, negative = inhibition) at 1uM” value is 4.92%.

Regarding `CN(C(=S)Nc1ccc(F)cc1)C(c1ccccc1)c1ccccc1`, the “hERG current change (%, negative = inhibition) at 1uM” value came out at 10.6%.

For `Cc1ccc(CNC(=O)/C(C#N)=C\c2ccc(N(C)C)cc2)cc1`, the “hERG current change (%, negative = inhibition) at 1uM” value was determined as 8.36%.

Consider `CC1=C(C/C=C(\C)CCCC(C)CCCC(C)CCCC(C)C)C(=O)c2ccccc2C1=O` (stereo not drawn), for which the “hERG current change (%, negative = inhibition) at 1uM” value is listed as 19.2%.

As for `CC(=O)c1cccc(NC(=O)C2CC(=O)N(CCc3ccccc3)C2)c1` (stereo not drawn), the “hERG current change (%, negative = inhibition) at 1uM” value is given as 12.6%.

As to `CSc1ccc(CN2CCC(Oc3ccc(C(=O)N4CCCC4)cc3)CC2)cc1`, the “hERG current change (%, negative = inhibition) at 1uM” value was -56.4%.

As for `CCOC(=O)C1=C(C)NC(SCC(N)=O)=C(C#N)C1c1ccncc1` (stereo not drawn), the “hERG current change (%, negative = inhibition) at 1uM” value amounted to 3.88%.

In the case of `CC1CCC(NC(=O)CCS(=O)(=O)c2ccc3c(c2)NC(=O)CO3)CC1` (stereo not drawn), the “hERG current change (%, negative = inhibition) at 1uM” value stood at 10.6%.

For `COc1ccc(-n2nc(C(=O)NCC(=O)N3CCC4(CC3)OCCO4)c3ccccc3c2=O)cc1`, the “hERG current change (%, negative = inhibition) at 1uM” value worked out at 16.8%.

With `CCCCN(C(=O)CCC(=O)Nc1cc(C)on1)C(C(=O)NC1CCCC1)c1ccc(OCC)cc1` (stereo not drawn), the “hERG current change (%, negative = inhibition) at 1uM” value is 4.26%.

For `CCOC(=O)Cc1csc(NC(=O)CN2C(=O)c3ccccc3C2=O)n1`, the “hERG current change (%, negative = inhibition) at 1uM” value worked out at 15.5%.

With `C=CC[C@]12CCc3sccc3C1N(c1ccc(C(=O)OCC)cc1)C2=O` (stereo partly drawn), the “hERG current change (%, negative = inhibition) at 1uM” value is 7.56%.

Take `CCC(=O)Nc1cccc(C(=O)OC)c1`: the “hERG current change (%, negative = inhibition) at 1uM” value was 15.6%.

In the case of `O=C(Nc1cccnc1)c1c(O)c2cccc3c2n(c1=O)CC3`, the “hERG current change (%, negative = inhibition) at 1uM” value is given as 16.6%.

Take `Nc1cc(Nc2ccccc2)ccn1.O=P(O)(O)O`: the “hERG current change (%, negative = inhibition) at 1uM” value came out at 9.53%.

`CC(C)C(=O)Nc1ccc(NC(=O)c2cccnc2)cn1`: the “hERG current change (%, negative = inhibition) at 1uM” value is 3.44%.

Regarding `O=C(O)CCCc1c(-[n+]2ccccc2)[nH]c2ccccc12.[Cl-]`, the “hERG current change (%, negative = inhibition) at 1uM” value is recorded as 11.5%.

For `Cc1ccccc1NC(=S)N1CCN(Cc2ccccc2)CC1`, the “hERG current change (%, negative = inhibition) at 1uM” value amounted to 8.17%.

For `CC(=O)OCC(=O)C1=CCC2C3CCC4=CC(=O)C=CC4(C)C3(F)C(OC(C)=O)CC12C` (stereo not drawn), the “hERG current change (%, negative = inhibition) at 1uM” value was determined as 6.8%.

With `Cc1cc(C)cc(NC(=O)Cn2cnc3c(nnn3Cc3ccc(F)cc3)c2=O)c1`, the “hERG current change (%, negative = inhibition) at 1uM” value amounted to 8.78%.

`COn1c(-c2ccccc2)nc2c1CCc1nonc1-2`: the “hERG current change (%, negative = inhibition) at 1uM” value is listed as 5.57%.

In the case of `Cc1sc(NC(=O)c2ccco2)c(C(c2ccccc2)N2CCC(C)CC2)c1C` (stereo not drawn), the “hERG current change (%, negative = inhibition) at 1uM” value amounted to 15.8%.

`Nc1cc(-c2ccccc2)nn1Cc1ccccc1`: the “hERG current change (%, negative = inhibition) at 1uM” value was 0.188%.

Turning to `COc1cccc(CCNC(=O)CCc2nnc(-c3ccc4c(c3)OCO4)o2)c1`, the “hERG current change (%, negative = inhibition) at 1uM” value was determined as 13.5%.

For `Cc1ccc(NC(=O)CN(C)CC(=O)Nc2sc3c(c2C(N)=O)CCC3)cc1`, the “hERG current change (%, negative = inhibition) at 1uM” value is on record as -11.5%.

With `O=C(C1CCCN(Cc2cccnc2)C1)N1CCCCC1.O=C(O)C(=O)O` (stereo not drawn), the “hERG current change (%, negative = inhibition) at 1uM” value was determined as 15.4%.

Regarding `O=C(NC12CC3CC(CC(C3)C1)C2)N1CCC(O)(c2ccc3c(c2)OCO3)CC1`, the “hERG current change (%, negative = inhibition) at 1uM” value is 2.34%.

Turning to `CCCC[C@@H]1CNCCN1CCc1cccc(F)c1`, the “hERG current change (%, negative = inhibition) at 1uM” value is reported as 8.67%.

Consider `O=C(NNC(=S)NC(=O)c1ccccc1[N+](=O)[O-])c1ccccc1O`, for which the “hERG current change (%, negative = inhibition) at 1uM” value was 8.16%.

Take `CCOc1ccc2[nH]c(=O)c(CN(CCN3CCCC3)C(=S)Nc3ccccc3OCC)cc2c1`: the “hERG current change (%, negative = inhibition) at 1uM” value is -30.2%.

In the case of `COC(=O)c1ccc(CSc2ccc3nnc(-c4ccc(F)cc4)n3n2)o1`, the “hERG current change (%, negative = inhibition) at 1uM” value is -8.96%.

As to `Cc1ccccc1N=C1N=C(N)c2ccccc21`, the “hERG current change (%, negative = inhibition) at 1uM” value stood at 2.72%.

For `CN(Cc1cccc(F)c1)C(=O)C(c1ccccc1)c1ccccc1`, the “hERG current change (%, negative = inhibition) at 1uM” value came out at 5.63%.

On to `Cc1cc(C)nc(SCC(=O)c2ccc(F)cc2F)n1`, for which the “hERG current change (%, negative = inhibition) at 1uM” value was found to be 3.86%.

On to `COc1ccc(C(=O)c2c[nH]c(C(=O)NCCCn3ccnc3)c2)cc1`, for which the “hERG current change (%, negative = inhibition) at 1uM” value turned out to be 6.75%.

As to `O=C(COC(=O)c1ccco1)NCCNC(=O)COC(=O)c1ccco1`, the “hERG current change (%, negative = inhibition) at 1uM” value is recorded as 8.83%.

On to `COCCNCCOCCOc1cccc(OC)c1`, for which the “hERG current change (%, negative = inhibition) at 1uM” value was found to be 9.18%.

Turning to `CCOc1ccc(NC(=O)c2ccc(NC(=O)Cc3n[nH]c(=O)c4ccccc34)cc2)cc1`, the “hERG current change (%, negative = inhibition) at 1uM” value came to 8.7%.

In the case of `CCCCOc1ccc(CCC(=O)N/N=C/c2ccco2)cc1`, the “hERG current change (%, negative = inhibition) at 1uM” value is reported as 0.761%.

As to `O=C(COc1ccccc1Br)NC1CCCC1`, the “hERG current change (%, negative = inhibition) at 1uM” value came out at 12.2%.

On to `Cc1cccc(NC(=O)Cc2ccc(F)cc2)c1`, for which the “hERG current change (%, negative = inhibition) at 1uM” value is recorded as -4.79%.

On to `O=C(NNc1ccc(C2CCCCC2)cc1)C(O)(c1ccccc1)c1cccs1` (stereo not drawn), for which the “hERG current change (%, negative = inhibition) at 1uM” value was -9.24%.

As for `O=C(NCc1ccco1)C1CC(c2ccccc2O)=NO1` (stereo not drawn), the “hERG current change (%, negative = inhibition) at 1uM” value came to 19.3%.
